Reference: a compilation of properties of binary mixtures (doi:10.1016/j.fluid.2015.05.023)
Some of these densities may be calculated back from excess volumes.

Test: xn = mol fraction of the nth substance listed
Details: 100 kPa

CCCn1cc[n+](CCC)c1.O=S(=O)([N-]S(=O)(=O)C(F)(F)F)C(F)(F)F + O
x2 = 0.2232
Details	mass density [kg/m3]
298.15 K	1391.3
308.15 K	1381.6
318.15 K	1372
323.15 K	1367.2
328.15 K	1362.5
338.15 K	1353
343.15 K	1348.4
353.15 K	1339.1
358.15 K	1334.5

CCCCCCCCCn1cc[n+](C)c1.O=S(=O)([N-]S(=O)(=O)C(F)(F)F)C(F)(F)F + O
x2 = 0.1736
Details	mass density [kg/m3]
303.15 K	1289.2
313.15 K	1280.4
328.15 K	1267.3
333.15 K	1263
338.15 K	1258.7
343.15 K	1254.4
348.15 K	1250.1
353.15 K	1245.9

CCCn1cc[n+](C)c1.O=S(=O)([N-]S(=O)(=O)C(F)(F)F)C(F)(F)F + O
x2 = 0.272
Details	mass density [kg/m3]
298.15 K	1464.3
303.15 K	1459.1
313.15 K	1448.9
328.15 K	1433.8
333.15 K	1428.8
338.15 K	1423.8
348.15 K	1413.7
358.15 K	1404
363.15 K	1399.2

CCCCCCCCn1cc[n+](CCCCCCCC)c1.O=S(=O)([N-]S(=O)(=O)C(F)(F)F)C(F)(F)F + O
x2 = 0.1246
Details	mass density [kg/m3]
298.15 K	1191.7
313.15 K	1179.5
318.15 K	1175.4
323.15 K	1171.4
328.15 K	1167.3
333.15 K	1163.3
338.15 K	1159.3
343.15 K	1155.3
348.15 K	1151.3
353.15 K	1147.3
363.15 K	1139.5

CCCCCn1cc[n+](CCCCC)c1.O=S(=O)([N-]S(=O)(=O)C(F)(F)F)C(F)(F)F + O
x2 = 0.1575
Details	mass density [kg/m3]
298.15 K	1290
303.15 K	1285.6
308.15 K	1281.1
318.15 K	1272.3
323.15 K	1267.9
328.15 K	1263.6
333.15 K	1259.2
343.15 K	1250.6
348.15 K	1246.4
353.15 K	1242.1
363.15 K	1233.7

CCCCCCC[n+]1ccn(C)c1.O=S(=O)([N-]S(=O)(=O)C(F)(F)F)C(F)(F)F + O
x2 = 0.1971
Details	mass density [kg/m3]
298.15 K	1337
303.15 K	1332.4
313.15 K	1323.3
328.15 K	1309.8
333.15 K	1305.3
338.15 K	1300.9
343.15 K	1296.5
348.15 K	1292.1
353.15 K	1287.7
363.15 K	1279

CCn1cc[n+](CC)c1.O=S(=O)([N-]S(=O)(=O)C(F)(F)F)C(F)(F)F + O
x2 = 0.2772
Details	mass density [kg/m3]
298.15 K	1462.9
303.15 K	1457.8
308.15 K	1452.7
313.15 K	1447.7
323.15 K	1437.6
328.15 K	1432.6
333.15 K	1427.6
338.15 K	1422.7
343.15 K	1417.8
348.15 K	1412.8
353.15 K	1407.9
363.15 K	1398.1

CCCCCCn1cc[n+](CCCCCC)c1.O=S(=O)([N-]S(=O)(=O)C(F)(F)F)C(F)(F)F + O
x2 = 0.1489
Details	mass density [kg/m3]
298.15 K	1252.5
308.15 K	1243.9
313.15 K	1239.6
318.15 K	1235.3
323.15 K	1231
333.15 K	1222.6
338.15 K	1218.4
343.15 K	1214.2
348.15 K	1210
353.15 K	1205.9
358.15 K	1201.7
363.15 K	1197.7

CCCCn1cc[n+](CCCC)c1.O=S(=O)([N-]S(=O)(=O)C(F)(F)F)C(F)(F)F + O
x2 = 0.1843
Details	mass density [kg/m3]
298.15 K	1337.3
303.15 K	1332.7
313.15 K	1323.6
318.15 K	1319
323.15 K	1314.5
328.15 K	1310
333.15 K	1305.5
338.15 K	1301
343.15 K	1296.6
348.15 K	1292.2
353.15 K	1287.8

CCCCCCCCCCCn1cc[n+](C)c1.O=S(=O)([N-]S(=O)(=O)C(F)(F)F)C(F)(F)F + O
x2 = 0.1567
Details	mass density [kg/m3]
298.15 K	1257.7
303.15 K	1253.4
308.15 K	1249.1
313.15 K	1244.8
318.15 K	1240.5
323.15 K	1236.2
328.15 K	1232
333.15 K	1227.7
343.15 K	1219.3
348.15 K	1215.1
353.15 K	1210.9
358.15 K	1206.8
363.15 K	1202.7

CCCCCCCn1cc[n+](CCCCCCC)c1.O=S(=O)([N-]S(=O)(=O)C(F)(F)F)C(F)(F)F + O
x2 = 0.1365
Details	mass density [kg/m3]
298.15 K	1222.8
303.15 K	1218.6
308.15 K	1214.5
313.15 K	1210.3
318.15 K	1206.1
323.15 K	1202
328.15 K	1197.8
333.15 K	1193.7
338.15 K	1189.6
343.15 K	1185.5
348.15 K	1181.5
353.15 K	1177.4
358.15 K	1173.4
363.15 K	1169.4

CC[n+]1ccn(C)c1.O=S(=O)([N-]S(=O)(=O)C(F)(F)F)C(F)(F)F + O
x2 = 0.298
Details	mass density [kg/m3]
308.15 K	1490.5
318.15 K	1480.2
323.15 K	1475
328.15 K	1469.9
338.15 K	1459.8
343.15 K	1454.7
348.15 K	1449.3
353.15 K	1444.7
358.15 K	1439.5
363.15 K	1434.3

CCCC[n+]1ccn(C)c1.O=S(=O)([N-]S(=O)(=O)C(F)(F)F)C(F)(F)F + O
x2 = 0.257
Details	mass density [kg/m3]
298.15 K	1428.1
303.15 K	1423.2
308.15 K	1418.3
313.15 K	1413.4
318.15 K	1408.5
328.15 K	1398.8
338.15 K	1389.2
348.15 K	1379.7
358.15 K	1370.3
363.15 K	1365.5

Cn1cc[n+](C)c1.O=S(=O)([N-]S(=O)(=O)C(F)(F)F)C(F)(F)F + O
x2 = 0.3548
Details	mass density [kg/m3]
298.15 K	1546.6
303.15 K	1541.2
308.15 K	1535.9
313.15 K	1530.5
318.15 K	1525.3
323.15 K	1520
328.15 K	1514.7
333.15 K	1509.5
338.15 K	1504.3
343.15 K	1499.1
348.15 K	1493.9
353.15 K	1488.8
358.15 K	1483.6
363.15 K	1478.5

CCCCCn1cc[n+](C)c1.O=S(=O)([N-]S(=O)(=O)C(F)(F)F)C(F)(F)F + O
x2 = 0.2211
Details	mass density [kg/m3]
298.15 K	1396.6
303.15 K	1391.7
308.15 K	1386.8
323.15 K	1372.4
328.15 K	1367.7
333.15 K	1363
338.15 K	1358.1
343.15 K	1353.4
348.15 K	1348.7
353.15 K	1344
358.15 K	1339.2
363.15 K	1334.6
